The campaign covered roughly 110,000 compounds. About 230 (0.21%) showed an effect of 50% or more. The list shows a part of the results.
Target: DPAP1 (Plasmodium falciparum, UniProt Q8IIJ9)
Test: primary screen, percent inhibition; read by cleavage of a fluorogenic dipeptide substrate; higher = more effect of the substance
Parameters: species or system P. falciparum D10 trophozoite lysates; single well
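Also: 30 min substrate incubation versus DMSO and 10 µM JCP410 controls.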

Sequence of DPAP1 (Q8IIJ9 whole entry, looked up): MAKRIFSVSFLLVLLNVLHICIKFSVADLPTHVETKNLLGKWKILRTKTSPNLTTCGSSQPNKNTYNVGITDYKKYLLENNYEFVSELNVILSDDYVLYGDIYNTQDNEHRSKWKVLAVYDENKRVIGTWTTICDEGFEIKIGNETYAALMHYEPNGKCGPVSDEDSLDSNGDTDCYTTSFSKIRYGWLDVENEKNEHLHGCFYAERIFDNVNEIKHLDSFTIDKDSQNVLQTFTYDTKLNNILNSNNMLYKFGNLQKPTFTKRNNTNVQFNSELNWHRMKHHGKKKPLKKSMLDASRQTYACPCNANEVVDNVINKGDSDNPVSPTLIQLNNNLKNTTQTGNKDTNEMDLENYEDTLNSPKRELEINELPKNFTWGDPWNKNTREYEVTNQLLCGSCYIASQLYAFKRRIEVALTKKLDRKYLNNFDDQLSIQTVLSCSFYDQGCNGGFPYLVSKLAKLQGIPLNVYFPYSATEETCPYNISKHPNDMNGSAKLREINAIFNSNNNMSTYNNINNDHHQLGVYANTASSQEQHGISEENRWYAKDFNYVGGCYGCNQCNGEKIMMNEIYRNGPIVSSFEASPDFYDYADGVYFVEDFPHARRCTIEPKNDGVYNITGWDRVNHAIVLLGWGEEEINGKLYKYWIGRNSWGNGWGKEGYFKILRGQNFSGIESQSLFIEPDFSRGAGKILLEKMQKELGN

| Compound | % Inhibition @ 10 uM |
| --- | --- |
| CCOc1ccc(CN2CCN(c3ccc(Cl)cc3)CC2)cc1 | -1.77% |
| C(=C\c1ccccc1)/CN1CCN(C2CCN(Cc3ccccc3)CC2)CC1 | 1.88% |
| CCOCCCNC(=O)Cn1ncc2c3ccccc3n(Cc3cccc(Cl)c3)c2c1=O | 0.137% |
| CC1(C(=O)NCc2ccc(C(C)(C)C)cc2)COC(c2ccccc2)OC1 (stereo not shown) | -4.35% |
| O=C(NCCCN1CCOCC1)c1cc2c(O)nc3ccccc3c2s1 | -0.499% |
| O=C(Cn1cccc1)NCCc1ccc(Cl)cc1 | -0.905% |
| Cc1ccc2nc3c(O)n(CCCN4CC(C)CC(C)C4)cnc-3c2c1 (stereo not shown) | -0.0235% |
| CC1(C)O[C@H]2OC(C(=O)N3CCCCC3c3cccnc3)[C@@H]3OC(C)(C)O[C@@H]3[C@H]2O1 (stereo partly shown) | 0.279% |
| CCN1CCN(C(=O)C2CC(=O)N(CCc3ccc(C)cc3)C2)CC1 (stereo not shown) | -1.79% |
| N#Cc1c2c(c(S)sc1=N)CCCC2 | 59.6% |
| COc1cccc(C2C(C#N)=C(N)Oc3c2c(O)nc2ccccc32)c1OC (stereo not shown) | 4.51% |
| COc1ccc(OC)c(C2NC(=O)NC(C)=C2C(=O)Nc2ccccc2)c1 (stereo not shown) | -4.49% |
| Cc1ccc(NC(=O)C(CCS(C)(=O)=O)N2Cc3ccccc3C2=O)nc1 (stereo not shown) | -2.17% |
| Cc1ccc(-c2csc(/C(C#N)=C/c3ccc(Br)o3)n2)cc1 | 6.8% |
| Nc1ncc(Br)cc1S(=O)(=O)NC1CCCCC1 | -1.06% |
| Cc1ccc(OCC(=O)Nc2cccc(Cl)c2)c(Br)c1 | 1.27% |
| Cc1occc1C(=O)N(Cc1ccccc1)Cc1ccccc1 | -1.1% |
| COc1cc(OC)c(/C=C2/SC(=O)N(C(C)C)C2=O)cc1Br | -1.28% |
| Cc1ccc(NC(=O)c2c(-c3ccccc3)noc2C)cc1C | -2.11% |
| CC(C(=O)NCc1ccco1)n1nc(-c2ccccc2)c2cc(Cl)ccc21 (stereo not shown) | 0.291% |
| Cc1ccc(C(=O)Nc2nc(-c3nnn(-c4ccccc4C(F)(F)F)c3C)ns2)cc1 | -2.83% |
| Cc1ccc(NC(=O)CN(c2cccc(Cl)c2)S(C)(=O)=O)cc1Cl | -14.2% |
| CC(C)c1ccc(/C=C/C(=O)Nc2ccc(Cl)c(Cl)c2)cc1 | 13.1% |
| COc1ccc(OC)c(C2C(C#N)=C(N)OC3=C2C(=O)CCC3)c1 (stereo not shown) | 3.31% |
| O=C1NC(=S)N/C1=C\C=C\c1cccs1 | 1% |
| CCOC(=O)c1ccccc1NC(=O)c1cccs1 | -2.28% |
| Cc1ccc(Cn2c(C)c3cnn(CC(=O)NCc4cccnc4)c(=O)c3c2C)cc1 | -3.96% |
| Cc1c(Br)c(NC(=O)C(F)(F)F)nn1Cc1ccc(Cl)cc1 | -1.2% |

Reference: PMC6919601, “Identification of Plasmodium dipeptidyl aminopeptidase allosteric inhibitors by high throughput screening” (PLoS ONE, 2019)
